For assay [1], the target named is T1, SARS-CoV Spike protein, full length, C-terminally fused with EGFP (SARS-CoV).
T1 construct: whole, on cells
The experiment in a line: flow cytometry, HEK293 cells expressing full-length Spike-EGFP, anti-hIg-PE. (In flow cytometry, cells or beads pass a laser one at a time.)

Assay [2] concerns the target T2, MERS-CoV Spike protein, full length, C-terminally fused with EGFP (MERS-CoV).
T2 construct: whole, on cells
Described as above.

B1: COV2-324-16-Fc (Fc fusion)
chain: QLQLVESGGDLVQPGESLRLSCVASGFTFDDYSIGWFRQAPGKEREGVSCFSSLDGSTSYADSVRGRFTISRENAKNAVYLEMNSLKPEDTAVYYCAATRGSSWYWYRPSEYDYWGQGTQVTVSS[human IgG1 Fc with changes not listed]
Consider B1, for which the binding result in assay [1] and in assay [2] was “no binding” throughout.

B2: COV2-121-15-Fc (Fc fusion)
chain: QLQLVESGGDLVQPGESLRLSCVASFDDFAIGWIGWFRQAPGKEREGVSCSARGIVNTSYADSVRGRFTISRENAKNAVYLEMNSLKPEDTAVYYCAALVGLNDRSLPHEAEEYDYWGQGTQVTVSS[human IgG1 Fc with changes not listed]
For the molecule B2, the binding result in assay [1] and in assay [2] was “no binding” in each case.
